Experimental data published in the supplement of paper PMC9446081.
Out of some 39,000 compounds screened, about 220 (0.56%) showed activity. This is one part of the list.
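Note: static incubation at 37 °C against the wild-type strain, values averaged over two biological replicates.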

The compounds below were run on Escherichia coli K-12 BW25113 (assay: relative growth (OD600 normalised to plate interquartile mean) (fraction); higher = less growth inhibition, active = 0.2 or less). Settings: 50 µM; LB; incubation time: overnight (16-24 h).
For CN1C(=O)c2cc(NC(=O)Nc3cccc(C#N)c3)ccc2OC[C@H]2O[C@@H](CC(=O)Nc3ccc4c(c3)CCC4)CC[C@@H]21, the relative growth was inactive: 0.984.
With CO[C@H](CN(C)S(=O)(=O)c1ccc(Cl)cc1)[C@@H](C)CN([C@@H](C)CO)S(=O)(=O)c1cccc(Cl)c1 the relative growth was inactive: 1.01.
C[C@@H]1CN([C@H](C)CO)C(=O)c2cc(NC(=O)CCCN(C)C)ccc2O[C@@H](C)CCCCO[C@H]1CN(C)S(=O)(=O)c1cn(C)cn1 was tested, and the relative growth was inactive: 1.03.
In the case of COc1ccc2c3c([nH]c2c1)[C@H](CO)N(Cc1ccc(cc1)Cl)C[C@]13CN(CCc2ccccc2)C1, the relative growth is reported as inactive: 0.951.
With C[C@@H]1CN([C@H](C)CO)C(=O)c2cccc(NC(=O)Nc3cccc4ccccc34)c2O[C@H]1CN(C)S(=O)(=O)c1ccc(F)cc1 the relative growth was inactive: 1.03.
In the case of CC(C)c1cc(=O)n2nc(N)nc2[nH]1, the relative growth is reported as inactive: 1.01.
With C[C@H](CO)N1C[C@H](C)[C@@H](CN(C)CC2CCOCC2)Oc2cc(Br)ccc2S1(=O)=O the relative growth was inactive: 0.977.
In the case of O=C1N[C@@H](Cc2c[nH]c3ccccc23)COC(=O)[C@@H](Cc2ccc(F)cc2)CC=CC[C@@H]1CC(=O)N(CCO)Cc1ccccc1, the relative growth is reported as inactive: 0.995.
For Cc1ccc(S(=O)(=O)N(C)C[C@H]2Oc3c(NC(=O)c4cc(C)nn4C)cccc3C(=O)N([C@H](C)CO)C[C@@H]2C)cc1, the relative growth was inactive: 0.992.
C[C@H](CO)N1C[C@H](C)[C@@H](CN(C)Cc2ccc(-c3ccccc3)cc2)Oc2c(NC(=O)C3CCCCC3)cccc2C1=O was tested, and the relative growth was inactive: 1.02.
With O=C(NC1CC1)[C@@H]1c2ccccc2C(=O)N(Cc2cc(F)cc(C(F)(F)F)c2)[C@H]1c1ccc(CO)cc1 the relative growth was inactive: 0.9.
With CN1CCN(C(=O)C[C@@H]2CC[C@H]3[C@@H](COC[C@@H](O)CN3C(=O)Nc3ccc4c(c3)OCO4)O2)CC1 the relative growth was inactive: 0.978.
In the case of Cc1ccc(S(=O)(=O)Nc2ccc3c(c2)C(=O)N([C@H](C)CO)C[C@@H](C)[C@@H](CN(C)C(=O)Nc2ccc(C(F)(F)F)cc2)O3)cc1, the relative growth is reported as inactive: 0.914.
With CCNC(=O)C[C@@H]1CC[C@H]2[C@@H](COC[C@H](O)CN2C(=O)Nc2c(C)noc2C)O1 the relative growth was inactive: 0.966.
With C[C@@H]1CN([C@H](C)CO)C(=O)Cc2cc(NS(=O)(=O)c3cn(C)cn3)ccc2O[C@H]1CN(C)C(=O)NC1CCCCC1 the relative growth was inactive: 1.01.
CC(C)(C)NC[C@@]1(CO)SC(N)=NC1=O was tested, and the relative growth was inactive: 0.984.
For O=C(Cc1ccccn1)NCC[C@H]1CC[C@H](NC(=O)CN2CCOCC2)[C@@H](CO)O1, the relative growth was inactive: 0.994.
